Results are given in words; binding and its absence hold for the method and conditions named. For part of these data: Sequences can lack the tags named with a protein.
Experiments:
Assay in all cases: pull-down; AKAP12 bait on beads (HA-AKAP12 on agarose beads; His-AKAP12 (1-840) or (840-1782) cross-linked to CNBr-activated Sepharose 4B), incubated with purified His-AKAP5 or GST-G3BP1 in PBS, 1% Triton X-100, 1 mg/ml BSA, 4°C 1 h (for 840-1782 also 37°C 1 h and 4°C 17 h); immunoblot with anti-AKAP5 or anti-GST; both purified
[1] = biological target: HA-tagged AKAP12 (full-length), purified, immobilized to agarose beads (human) (UniProt Q02952)
[2] = biological target: T1, His-tagged AKAP12 (1-840) (human) (UniProt Q02952)
T1 sequence: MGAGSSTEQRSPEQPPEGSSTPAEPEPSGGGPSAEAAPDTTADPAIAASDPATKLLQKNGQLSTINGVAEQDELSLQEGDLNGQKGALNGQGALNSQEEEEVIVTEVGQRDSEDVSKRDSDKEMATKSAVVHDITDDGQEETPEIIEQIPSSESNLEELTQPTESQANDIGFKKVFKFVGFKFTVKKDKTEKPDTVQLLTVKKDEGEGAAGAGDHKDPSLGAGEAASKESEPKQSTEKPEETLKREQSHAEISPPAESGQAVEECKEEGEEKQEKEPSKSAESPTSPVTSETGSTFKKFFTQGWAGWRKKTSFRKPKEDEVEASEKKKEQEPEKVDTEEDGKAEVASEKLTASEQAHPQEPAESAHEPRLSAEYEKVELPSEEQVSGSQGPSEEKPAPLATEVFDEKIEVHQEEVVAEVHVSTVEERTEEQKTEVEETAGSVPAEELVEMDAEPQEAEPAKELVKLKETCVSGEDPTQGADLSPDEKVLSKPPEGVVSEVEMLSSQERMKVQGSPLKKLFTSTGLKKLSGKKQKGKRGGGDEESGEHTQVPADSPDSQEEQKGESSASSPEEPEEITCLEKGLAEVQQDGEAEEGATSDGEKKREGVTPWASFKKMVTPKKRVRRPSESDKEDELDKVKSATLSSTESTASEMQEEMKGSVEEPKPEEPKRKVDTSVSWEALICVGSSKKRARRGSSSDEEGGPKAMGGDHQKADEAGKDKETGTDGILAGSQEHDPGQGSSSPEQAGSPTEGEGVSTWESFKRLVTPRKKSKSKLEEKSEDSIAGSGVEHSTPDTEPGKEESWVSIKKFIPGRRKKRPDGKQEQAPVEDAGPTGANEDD

Protein sequences, listed by entry. Tags and fused reporters are not part of them.
UniProt Q13283: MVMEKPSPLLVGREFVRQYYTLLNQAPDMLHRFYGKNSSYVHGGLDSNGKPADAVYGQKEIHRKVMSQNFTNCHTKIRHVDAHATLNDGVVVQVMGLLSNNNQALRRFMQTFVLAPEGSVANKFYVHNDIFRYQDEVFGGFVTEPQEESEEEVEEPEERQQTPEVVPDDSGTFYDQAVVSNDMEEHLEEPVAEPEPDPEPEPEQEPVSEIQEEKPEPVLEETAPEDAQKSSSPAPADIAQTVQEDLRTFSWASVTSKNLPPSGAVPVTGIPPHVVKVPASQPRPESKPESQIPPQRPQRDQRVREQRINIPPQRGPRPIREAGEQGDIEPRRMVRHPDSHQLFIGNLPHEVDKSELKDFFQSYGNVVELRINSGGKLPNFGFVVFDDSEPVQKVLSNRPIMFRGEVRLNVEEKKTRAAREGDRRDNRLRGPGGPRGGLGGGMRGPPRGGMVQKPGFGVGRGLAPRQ

[3] = biological target: T2, His-tagged AKAP12 (840-1782) (human) (UniProt Q02952)
T2 sequence: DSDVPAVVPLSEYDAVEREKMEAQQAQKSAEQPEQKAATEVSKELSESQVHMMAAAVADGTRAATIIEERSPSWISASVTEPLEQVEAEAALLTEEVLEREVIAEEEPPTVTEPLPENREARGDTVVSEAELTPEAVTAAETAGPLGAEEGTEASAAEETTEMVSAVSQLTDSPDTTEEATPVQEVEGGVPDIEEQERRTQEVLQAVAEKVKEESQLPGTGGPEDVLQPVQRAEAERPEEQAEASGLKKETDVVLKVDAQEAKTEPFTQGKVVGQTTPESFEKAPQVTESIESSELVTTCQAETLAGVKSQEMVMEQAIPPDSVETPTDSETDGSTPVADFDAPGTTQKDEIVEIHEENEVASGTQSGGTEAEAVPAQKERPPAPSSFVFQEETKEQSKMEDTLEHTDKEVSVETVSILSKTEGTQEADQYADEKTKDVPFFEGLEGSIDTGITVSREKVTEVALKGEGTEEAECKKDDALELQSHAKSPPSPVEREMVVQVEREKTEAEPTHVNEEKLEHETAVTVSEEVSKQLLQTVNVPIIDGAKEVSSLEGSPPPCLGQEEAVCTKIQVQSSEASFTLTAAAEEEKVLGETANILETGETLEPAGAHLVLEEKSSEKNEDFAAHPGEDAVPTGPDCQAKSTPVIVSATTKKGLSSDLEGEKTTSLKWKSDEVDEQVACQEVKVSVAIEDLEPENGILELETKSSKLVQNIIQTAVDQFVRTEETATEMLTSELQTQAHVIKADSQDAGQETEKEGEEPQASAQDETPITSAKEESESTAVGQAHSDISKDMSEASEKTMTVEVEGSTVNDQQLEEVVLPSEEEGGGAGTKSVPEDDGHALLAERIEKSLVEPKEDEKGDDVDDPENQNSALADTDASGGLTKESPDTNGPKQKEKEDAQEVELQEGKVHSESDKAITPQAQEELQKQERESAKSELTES

binding [1]: no binding
binding [2]: no binding
binding [3]: no binding
Substance: GST-tagged G3BP1 (from UniProt Q13283 1-466)

Source: PMC3170326, “AKAP12 and AKAP5 form higher-order hetero-oligomers” (Journal of Molecular Signaling, 2011)
